The values below come from patent US20110182903A1, “NOVEL SOLUBLE CD83 POLYPEPTIDES, FORMULATIONS AND METHODS OF USE” (priority 2008, published 2011).

“Also recorded” adds a separate entry of the source. Where two headings read alike, the source gives them in different places.

Series [1] is described as follows: Isoelectric focusing (IEF) gels of forced-degradation samples. In kind it is physicochemical. The protocol: At the conclusion of the stated exposure time, acidic and basic samples were neutralized. All samples were stored at −20° C. until analyzed using SE-HPLC and isoelectric focusing (IEF) gels.
Data generated using SE-HPLC and isoelectric focusing (not shown), indicate that degradation products of hCD83ext are more electronegative than the starting material. This may be attributed primarily to multiple deamidations or hydrolysis and will be evaluated in on-going preformulation studies. […] Regarding charge state, the pI to be 6.9. Another major band appears in the room temperature (RT) control, with a pI of ˜6.8.
From the aspect of molecular size, acidic conditions (pH˜2) favored monomer (˜0.4% aggregation, same as RT control). […] The degradation observed for this sample is most likely due to exposure to ambient conditions rather than light. […] Acidic conditions (pH˜2) appear to stabilize the protein for both the state of aggregation and the charge state of hCD83ext. The IEF profile looks intact, even when compared to the RT control.

Series [2] in a line: pH degradation rate study, SE-HPLC. In kind it is physicochemical. How it is done:
To further investigate the role of pH and its influence on protein stability, wild-type hCD83ext (lot 021 in PBS at pH 7.6) was freshly thawed and analyzed (first row of Table 6) or stored at room temperature and 2-8° C., at pH's of 4, 5, 6, 7, 8 and 9. Samples were kept at −70° C. until analyzed, after 1,2, 4 and 10 days of storage. These samples were then analyzed by SEC HPLC (Table 6) or using by SDS-PAGE Bioanalyzer (under reduced and non-reduced conditions; FIGS. 31-35).

Series [3] deals with TNFα production by LPS/IFN-γ stimulated peripheral blood mononuclear cells (PBMCs).

B1: hCD83ext-wt: recombinant human sCD83 (CD83 extracellular domain) purified from E. coli, wild type form, SEQ ID NO:5 (protein)
chain: GSPGTPEVKVACSEDVDLPCTAPWDPQVPYTVSWVKLLEGGEERMETPQEDHLRGQHYHQKGQNGSFDAPNERPYSLKIRNTTSCNSGTYRCTLQDPDGQRNLSGKVILRVTGCPAQRKEETFKKYRAEI
modifications: Synthetic extracellular domain of human CD83 with the addition of Gly-Ser-Pro-Gly at the N-terminus and Ile at the C-terminus
In turn, B1 returned a pI in series [1] of 6.9. Also, the “degradation (IEF bands)” value in series [1] (heat (70° C.) and basic condition (pH~12)) is on record as “rapid degradation”. Also, the “% AGGREGATE” value in series [2] (pH 5, RT, 1 day) amounted to 0.00%; in series [2] (pH 5, RT, 10 days), 4.61%; in series [2] (pH 6, 2-8 C., 1 day), 6.39%. The “% FRAGMENTS” value in series [2] (pH 5, RT, 1 day) worked out at 46.42%; in series [2] (pH 5, RT, 10 days), 54.23%; in series [2] (pH 6, 2-8 C., 1 day), 45.07%. For the same molecule, the “% MONOMER” value in series [2] (pH 5, RT, 1 day) is recorded as 53.58%; in series [2] (pH 5, RT, 10 days), 41.16%; in series [2] (pH 6, 2-8 C., 1 day), 48.54%; in series [2] (pH 6, 2-8 C., 10 days), 44.16%. The “ability to inhibit TNFα production (relative activity)” value in series [3] (FIG. 26, 0.5, 5, 25 and 100 μg/ml, wild type at pH 4.5 or 5.5, m3 at pH 5.5, m5 at pH 7.6, listed as hCD83ext wild type) was “retains greater activity when formulated at pH 4.5 than when formulated at pH 5.5; also recorded: more active than formulations at pH 7.6”; in series [3] (FIGS. 28, 29, wild type buffer exchanged to pH 4.5 or 5.5, m3 at pH 5.5, m5 at pH 7.6), “can be enhanced by formulating the material in an acidic buffer (pH 4.5 or pH 5.5)”.
